This is one part of the list.
T1: UNK ZnF1-6 (called full-length) (human, UniProt Q9C0B0 30-357)
T1 sequence: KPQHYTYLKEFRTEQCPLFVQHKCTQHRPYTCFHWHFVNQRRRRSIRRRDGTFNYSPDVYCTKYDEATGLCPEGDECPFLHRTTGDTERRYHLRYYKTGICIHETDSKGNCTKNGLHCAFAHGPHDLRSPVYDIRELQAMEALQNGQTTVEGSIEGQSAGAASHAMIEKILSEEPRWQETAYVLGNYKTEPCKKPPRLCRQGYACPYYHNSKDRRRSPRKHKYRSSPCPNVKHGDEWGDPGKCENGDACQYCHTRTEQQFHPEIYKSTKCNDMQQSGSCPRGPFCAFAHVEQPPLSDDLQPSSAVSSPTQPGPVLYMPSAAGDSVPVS

B1: ENSG00000136451:be:win_1051|CDS|ENSG00000136451|bound_else_gene|NA|bound_elsewhere_windowed (ssRNA)
RNA: GGGAGUUCUACAGUCCGACGAUCCAACAACAACAACAUGUGACAAGCUGGCCAGGGAAGCAAGUAGAAACACUGAGACUGUGGGAAGAAGCUGUUAAAGCAAGGAAGAAAGAAGCUGCUAACCUGUGCCAAACCUCCACGGCUCAACAGAGGAUUGAGCAUCA
B2: chr2:70277881:70277982:+|3pUTR|ENSG00000116005|msi1|FALSE|unique (ssRNA)
RNA: GGGAGUUCUACAGUCCGACGAUCACCUGAGGGAGAACUUAAAGACAUCUUAGUUGGGGAGUAGUCCUUUUGAAUUUUACAGCUAGAUAUAAUCUUCAGUCAGAUAAAAUUUAUGGGAGCUGGUGUCUUAUGCCUGACUCUUAGCAACAGAGGAUUGAGCAUCA
B3: chr6:105098323:105098438:-|3pUTR|ENSG00000112276|msi1|FALSE|unique (ssRNA)
RNA: GGGAGUUCUACAGUCCGACGAUCUAUCAGUGUCUCAAUGUGAAGAUUGUAACCUCAAGAUUAGGAAUCUUAAAAGAGCCACUUAGCCUGAAUGGGAAACGUGAGACUAUUUUUAAACACACACCUCUAAGGAAGAAGCCUCCCCAACAGAGGAUUGAGCAUCA
B4: chr14:23351947:23352451:-|CDS|ENSG00000092096|control|control|control (ssRNA)
RNA: GGGAGUUCUACAGUCCGACGAUCUGCCUCUGGCUGGGAGCAGCCUCCCAAUGCCAGCGGCGUCAGCGUCGCCAGCGCUGCCCUAGCAGCCAGCGCCGCCAGCCGUGUCGCCACCAGUACCGACCCCUCGUGCAGCGGCUUCGCCAACAGAGGAUUGAGCAUCA
B5: chr19:17816511:17817055:-|three_prime_utr|ENSG00000248099|control|control|control (ssRNA)
RNA: GGGAGUUCUACAGUCCGACGAUCCUACCCCAGACCAAUGCCACCUGCAGCCUGUGGAGUCAACUGCAGAAUAAAUCACACCCUAGCCCUGGCUUGGAGGAUCCCCGCUUUCACAGAUGCUGGACACUGACAGCCAAAUGUCCUCAACAGAGGAUUGAGCAUCA
B6: chr19:53353201:53353302:+|CDS|ENSG00000213799|msi1|FALSE|unique (ssRNA)
RNA: GGGAGUUCUACAGUCCGACGAUCCACAAUUCAGCCCUUGAAAUUCAUAAGGCAAUUCAUACUGGAGAAAAACCUUACAAGUGUAGUGAAUGUGGCAAGGUUUUUAAUAGAAAAGCAAACCUUUCACGUCAUCAUAGACUUCAUCAACAGAGGAUUGAGCAUCA
B7: ENSG00000182944:stop:overlap|stop_codon|ENSG00000182944|stop_codon|NA|stop_codon (ssRNA)
RNA: GGGAGUUCUACAGUCCGACGAUCGAGGACCUGGAAAAAUGGAUAAAGGCGAGCACCGUCAGGAGCGCAGAGAUCGGCCCUACUAGAUGCAGAGACCCCGCAGAGCUGCAUUGACUACCAGAUUUAUUUUUUAAACCAGAAAAUCAACAGAGGAUUGAGCAUCA
B8: chr8:23842320:23842421:-|3pUTR|ENSG00000159167|msi1|total|mutant (ssRNA)
RNA: GGGAGUUCUACAGUCCGACGAUCUAUGUAUCUACAAUACAUAUAUCUACACAUACAGAAAGAAGCAGUUCUCACAAUGUUGCCCGUUUUUUGCUUCUCUUUCCCCCACCCUACUCCCUCCAAUUCCCCCUUAAACUUCCAAAGCAACAGAGGAUUGAGCAUCA
B9: chr1:205084032:205084133:-|CDS|ENSG00000174529|msi1|FALSE|unique (ssRNA)
RNA: GGGAGUUCUACAGUCCGACGAUCGGAGACCGUCUGUGAGGUGGGCCCUGAUGGAGUGAGAAGGAAAUGUCAGACUCGGCGCUUAGAAUGUCUGACCAACUGGAUCUGUGGGAUGCUCCAUUUCACCAUUCUCAUUGGCAAGGACAACAGAGGAUUGAGCAUCA
B10: chrX:64224827:64225650:-|CDS|ENSG00000198881|control|control|control (ssRNA)
RNA: GGGAGUUCUACAGUCCGACGAUCCCUAGACCAUGGUGCAGAGGCCAACGUCAAAGCUAAACUACCAGUCUGGGCAUCAAACAUAGCUUCAUGUUCUGGCCCCCUCUAUUUGGCCGCAGUCUACGGGCACCUGGACUGUUUCCGCAACAGAGGAUUGAGCAUCA
B11: ENSG00000198589:be:win_7451|CDS|ENSG00000198589|bound_else_gene|NA|bound_elsewhere_windowed (ssRNA)
RNA: GGGAGUUCUACAGUCCGACGAUCUGAGUCCAUUGAUGUUCACAGACAAAGCCCAGCAGGAUGUUAUCAUGGUCCUCAAGUUUCCCUCCAACUCCCCUGUUACUCACGUGGCAGCCAACACCCAGCCUGGUUUGGCAACUCCCGCAACAGAGGAUUGAGCAUCA
B12: chr17:44959692:44960187:-|three_prime_utr|ENSG00000131094|control|control|control (ssRNA)
RNA: GGGAGUUCUACAGUCCGACGAUCCCCGGCCCUCCCCGGCUAUGACGCCCCCGGCCCGUGCUCAACACCGCCUGGGCCACAGCUAGGCCCUCCCACCGGCUCGCUGCAGAGCCGGGCCCAGCGCGCCCUGUCCCCGUGCCAGGGCAACAGAGGAUUGAGCAUCA
B13: chr12:29451344:29451569:-|CDS|ENSG00000187950|control|control|control (ssRNA)
RNA: GGGAGUUCUACAGUCCGACGAUCGAAGCAGAGCUAGAAAAGCCUAGAGGCUUUUUUCCCACACCACGGUAUCUACUGGAUUAUAGAGGAAGACUGGAAUGUUCUUGGGUGCUCAGAGUUUCAGCAAGCAGUAUGGCAAAAUUUCAACAGAGGAUUGAGCAUCA
B14: chr17:58089184:58089285:+|CDS_3pUTR|ENSG00000264364|msi1_unk|total|mutant (ssRNA)
RNA: GGGAGUUCUACAGUCCGACGAUCCAAAGCACUUCAUCUAUUUUUACUUGGGUCAAGUUGCAAUCCUCCUCUUCAAGUCAGGCCCGGUGGCCAUGGUGAAGGUGUCAGUGGCGGCGGCAGCGAUGGCAAGCAGGCGGCGUUGCUCAACAGAGGAUUGAGCAUCA

These binders were tested against T1, UNK ZnF1-6 (called full-length) (assay: nsRBNS (natural sequence RNA bind-n-seq); RBNS binding buffer (assumed for nsRBNS): 25 mM Tris pH 7.5, 150 mM KCl, 3 mM MgCl2, 0.01% Triton X-100, 500 ug/ml BSA, 20 U/ml SUPERase-In, 4 C; UNK is unkempt and MSI1 is Musashi-1; names of the RNAs are library labels; protein concentration not given here; high values mean tight binding).
B1 showed a binding signal of 0.759 enrichment R.
In the case of B2, the binding signal is reported as 0.742 enrichment R.
With B3 the binding signal was 0.617 enrichment R.
In the case of B4, the binding signal is reported as 0.508 enrichment R.
B5 was tested, and the binding signal was 0.81 enrichment R.
With B6 the binding signal was 0.536 enrichment R.
B7 showed a binding signal of 0.593 enrichment R.
B8 was tested, and the binding signal was 0.639 enrichment R.
With B9 the binding signal was 0.833 enrichment R.
In the case of B10, the binding signal is reported as 0.674 enrichment R.
B11 was tested, and the binding signal was 0.743 enrichment R.
With B12 the binding signal was 0.865 enrichment R.
With B13 the binding signal was 0.646 enrichment R.
Work on B14 yielded a binding signal of 0.98 enrichment R.
